The other results are listed elsewhere or left out. At the low end of the ranking the order means little.
Target: T1, ETS1 (UniProt P14921)
T1 sequence: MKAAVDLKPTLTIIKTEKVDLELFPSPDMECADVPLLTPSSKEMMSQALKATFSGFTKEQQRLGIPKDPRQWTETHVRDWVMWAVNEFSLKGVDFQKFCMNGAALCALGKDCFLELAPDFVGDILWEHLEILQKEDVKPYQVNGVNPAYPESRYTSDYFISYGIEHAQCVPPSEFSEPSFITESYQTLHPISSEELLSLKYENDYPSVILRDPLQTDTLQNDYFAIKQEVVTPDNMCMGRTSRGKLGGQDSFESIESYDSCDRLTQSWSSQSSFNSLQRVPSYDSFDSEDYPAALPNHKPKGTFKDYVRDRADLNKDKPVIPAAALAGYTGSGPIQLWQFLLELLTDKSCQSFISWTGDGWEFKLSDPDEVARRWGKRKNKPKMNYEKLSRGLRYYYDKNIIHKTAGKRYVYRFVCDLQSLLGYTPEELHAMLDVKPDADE
Assay: custom PBM
Conditions: custom protein-binding microarray; buffer, salt, pH and temperature not stated; high values mean tight binding; double strand, one strand shown

| Sequence | binding signal (log fluorescence intensity) |
| --- | --- |
| GTGTACAGGATCCCATCCAACACACGTGTTAAAATGGTCTTGATTCGCTTGACGCTGCTG | 8.4 |
| TAAAGGGAAGACGGTTGTGGTAGTACCGGGTATTAAGTCTTGATTCGCTTGACGCTGCTG | 8.12 |
| GATTAATTTCTGCCCTTATTCGCACTTGCCATAACAGTCTTGATTCGCTTGACGCTGCTG | 8.03 |
| GGAAAAAGGCCCATGGTAACACCGGAAGTGGGCTTAGTCTTGATTCGCTTGACGCTGCTG | 11.9 |
| GGAAAAAGGCCCAGGGTAACACCGGAAGTCGGCTTAGTCTTGATTCGCTTGACGCTGCTG | 11.5 |
| CAGCATAGGACTTCTTGCCTGAAGCAATTGATAACCGTCTTGATTCGCTTGACGCTGCTG | 8.16 |
| TGTCGGGTAAGGGAATGTAGGTCACGTGAATGAAAAGTCTTGATTCGCTTGACGCTGCTG | 8.19 |
| TGTCGGGTAAGGGAATGTAGATCACGTGAATGAAAAGTCTTGATTCGCTTGACGCTGCTG | 8.22 |
| GCTGCTGCGGTGCATACCGCACCGGATGTGACCCCGGTCTTGATTCGCTTGACGCTGCTG | 10.3 |
| GCTGCTGCGGTGCTTACCCCACCGGATGTGACCCCGGTCTTGATTCGCTTGACGCTGCTG | 10.3 |
| GGAAAAAGGCTCAGGGTAACACCGGAAGTGGGCTTAGTCTTGATTCGCTTGACGCTGCTG | 11.8 |
| CTGAAGTGTCGTAAACGTCGGATATCCGGTTCTTCTGTCTTGATTCGCTTGACGCTGCTG | 11.8 |
| GGATAAAGGCCCAGGGTAACACCGGAAGTGGGCTTAGTCTTGATTCGCTTGACGCTGCTG | 11.9 |
| TGTCCGGTAAGGGAATGTAGATCACGTGAATGAAAAGTCTTGATTCGCTTGACGCTGCTG | 8.18 |
| GCTGCTGCGGTGCATACCCCACCGGGTGTGACCCCGGTCTTGATTCGCTTGACGCTGCTG | 8.21 |
| CGGAAGTGTCGTAAACGTCGGATATCCGATTCTTCTGTCTTGATTCGCTTGACGCTGCTG | 8.64 |
| GATTAATTTATGCCCTTATTCGCACGTGCCATAACAGTCTTGATTCGCTTGACGCTGCTG | 8.31 |
| TCCGGCTACCAACTCCACCCACTTCAGGCCTTGTAGGTCTTGATTCGCTTGACGCTGCTG | 8.36 |
| GGAAAAAGGCCCAGGGTAACACCGGAAGTGGGATTAGTCTTGATTCGCTTGACGCTGCTG | 12.1 |
| GTGTATAGGATCCCATCCAACACACGTGTTAATATGGTCTTGATTCGCTTGACGCTGCTG | 8.34 |
| CACAATTTTTACAGTAATATAGCACGCGTAACTCCTGTCTTGATTCGCTTGACGCTGCTG | 8.37 |
| TCCGGCTACCAGATCCACCCACTTCAGGCCTTGTAGGTCTTGATTCGCTTGACGCTGCTG | 8.27 |

| Sequence | binding signal (log fluorescence intensity) |
| --- | --- |
| TCCGGCTACCAGCTCCACCCACTTCAGGCCTTGCAGGTCTTGATTCGCTTGACGCTGCTG | 8.11 |
| TAAAGGGAAGACGCTTGTGGTAGTTCCGGGTATTAAGTCTTGATTCGCTTGACGCTGCTG | 8.41 |
| CACAATTTTTACAGTAATGTAGCACGCGTAACTCCAGTCTTGATTCGCTTGACGCTGCTG | 8.12 |
| CTGGGACTTGACCCAACTCTGCCACGTTGGTCGTTTGTCTTGATTCGCTTGACGCTGCTG | 8.34 |
| CAGCATAGGAGTTCTTCCCTGAAGCAATTGATAACCGTCTTGATTCGCTTGACGCTGCTG | 8.17 |
| TCCGCCTACCAGCTCCACCCACTTCAGGCCTTGTAGGTCTTGATTCGCTTGACGCTGCTG | 8.47 |
| GATTAATTACTGCCCTTATTCGCACGTGCCATAACAGTCTTGATTCGCTTGACGCTGCTG | 8.17 |
| CTGGGACTTGGCCCAACTCTGCCACGTGGGTCGTTTGTCTTGATTCGCTTGACGCTGCTG | 8.06 |
| GTGTATAGGATCCCATCCAACTCACGTGTTAAAATGGTCTTGATTCGCTTGACGCTGCTG | 8.27 |
| TGTCGGGTAAGGGCATGTAGATCACGTGAATGAAAAGTCTTGATTCGCTTGACGCTGCTG | 8.41 |
| CGGAAGTGTCGTAAACGTCGGATATCCGGATCTTCTGTCTTGATTCGCTTGACGCTGCTG | 9.94 |
| GATTAATTTCTGCCCTTATTCGCGCGTGCCATAACAGTCTTGATTCGCTTGACGCTGCTG | 8.25 |
| TCCGGCTAACAGCTCCACCCACTTCAGGCCTTGTAGGTCTTGATTCGCTTGACGCTGCTG | 8.32 |
| TACTGACTTATATATGGGAATGCACATGAATAGACCGTCTTGATTCGCTTGACGCTGCTG | 8.32 |
| CGGAAGTGTCGTAAACCTCGGATATCCGGTTCTTCTGTCTTGATTCGCTTGACGCTGCTG | 11.7 |
| TAAAGGGAAGGCGGTTGTGGTAGTTCCGGGTATTAAGTCTTGATTCGCTTGACGCTGCTG | 8.4 |
| GCTGCTGCGGTGCATACCCCACCGGATGGGACCCCGGTCTTGATTCGCTTGACGCTGCTG | 8.45 |
| GTGTATAGGAACCCATCCAACACACGTGTTAAAATGGTCTTGATTCGCTTGACGCTGCTG | 8.33 |
| CACAATTTTTACAGTATTGTAGCACGCGTAACTCCTGTCTTGATTCGCTTGACGCTGCTG | 8.04 |
| GCTGCTGCGGTGCATACCACACCGGATGTGACCCCGGTCTTGATTCGCTTGACGCTGCTG | 10.7 |
| GATTAATTTCTGCCCTTATTCGCTCGTGCCATAACAGTCTTGATTCGCTTGACGCTGCTG | 8.23 |
| CTGGGACTTGACCCAACTCTGCCACGTGTGTCGTTTGTCTTGATTCGCTTGACGCTGCTG | 8.32 |

| Sequence | binding signal (log fluorescence intensity) |
| --- | --- |
| GTGTATAGGATCCCATCAAACACACGTGTTAAAATGGTCTTGATTCGCTTGACGCTGCTG | 8.21 |
| CGGAAGTGTCGTAAACGTCGGATCTCCGGTTCTTCTGTCTTGATTCGCTTGACGCTGCTG | 8.47 |
| CACAATTTTTAGAGTAATGTAGCACGCGTAACTCCTGTCTTGATTCGCTTGACGCTGCTG | 8.15 |
| CAGCATAGGACTTCTTCCCTGAAGCAATTGATAACCGTCTTGATTCGCTTGACGCTGCTG | 8.39 |
| GGAAAAAGGCCAAGGGTAACACCGGAAGTGGGCTTAGTCTTGATTCGCTTGACGCTGCTG | 12 |
| CAGCATAGGACTTCTTCCCTGAAGCTATTGATAACCGTCTTGATTCGCTTGACGCTGCTG | 8.13 |
| GCTGCTGCGGTGTATACCCCACCGGATGTGACCCCGGTCTTGATTCGCTTGACGCTGCTG | 10.1 |
| GTGTATAGGATCCCATCCAACCCACGTGTTAAAATGGTCTTGATTCGCTTGACGCTGCTG | 8.36 |
| GTGTATAGGATCCCATCCATCACACGTGTTAAAATGGTCTTGATTCGCTTGACGCTGCTG | 8 |
| CAGCATAGGACTTCTTCCCTGAAGCACTTGATAACCGTCTTGATTCGCTTGACGCTGCTG | 8.31 |
| GGAAAAAGGCCCAGGGTATCACCGGAAGTGGGCTTAGTCTTGATTCGCTTGACGCTGCTG | 11.4 |
| TGTTGGGTAAGGGAATGTAGATCACGTGAATGAAAAGTCTTGATTCGCTTGACGCTGCTG | 8.34 |
| TCCGGCTAGCAGCTCCACCCACTTCAGGCCTTGTAGGTCTTGATTCGCTTGACGCTGCTG | 8.23 |
| TCCGGCTACCAGCTCCACCCACTTCAGGCCGTGTAGGTCTTGATTCGCTTGACGCTGCTG | 8.27 |
| GCTGCTGCCGTGCATACCCCACCGGATGTGACCCCGGTCTTGATTCGCTTGACGCTGCTG | 10.4 |
| CGGAAGTGTAGTAAACGTCGGATATCCGGTTCTTCTGTCTTGATTCGCTTGACGCTGCTG | 11.6 |
| CTGGGACTTGACCAAACTCTGCCACGTGGGTCGTTTGTCTTGATTCGCTTGACGCTGCTG | 8.3 |
| GGAAAAAGGCCCAGGGTAACACCGTAAGTGGGCTTAGTCTTGATTCGCTTGACGCTGCTG | 8.34 |
| GTGTATAGGATCCCATCCAACACACGTGTTTAAATGGTCTTGATTCGCTTGACGCTGCTG | 8.26 |
| TACTGACTTATATATGCGAATGCACCTGAATAGACCGTCTTGATTCGCTTGACGCTGCTG | 8.24 |
| TCCGGCTACCAGCTCCACCCACTTCATGCCTTGTAGGTCTTGATTCGCTTGACGCTGCTG | 8.18 |

Source: paper PMC6602471
